“And” between values parts separate entries of the source, which are not always exact repeats. Identical values can stand only once.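 1) Cells in 96-well plates. 2) Compound, 48 h, 5 concentrations. 3) Linear interpolation between surrounding doses. 4) Unreached endpoint = highest concentration. Here, GI50 denotes the concentration required for 50% inhibition of growth. TGI marks complete inhibition of growth.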
What follows are compounds tested on NCI-H322M lung (assay: NCI anticancer screen, dose series, 48 h).

Structure (SMILES) | TGI | GI50
CCCC(=O)OC[n+]1ccc(-c2c(COC(=O)NC(C)C)c(COC(=O)NC(C)C)c3n2CCC3)cc1 | > 100 µM | –
O=[N+]([O-])c1ccc2c(c1)C(c1ccccc1Cl)=Nc1c(n[nH]c1-c1cccnc1)N2 | > 25 µM | > 25 µM
COc1ccc(OC)c(/C=C/c2ccnc3ccccc23)c1 | 17.5 µM | –
CC(=O)NNc1nc(C)c(C(=O)/C=C/c2ccc(Cl)c(Cl)c2)s1 | > 100 µM | –
Cc1ccccc1C(C(=O)NC1CCCCC1)N(C(=O)CNc1ncccc1F)c1cccc(F)c1 (stereo not given) | > 100 µM | > 100 µM
O=C1[C@@H](O)[C@@H]2CCCC[C@@]23CCCN13 | > 100 µM | –
O=C1C(=O)N(c2ccc(Cl)cc2)C(=O)C(=Nc2cccc3c(=O)[nH][nH]c(=O)c23)C1c1nc2ccccc2o1 (stereo not given) | > 100 µM | –
CCCCCCCCCCOCCOCCOCCOCCCCC(O)CCCCCCCC1=C[C@H](C)OC1=O (stereo not given in full) | 33.4 µM | –
C=CC(=O)N1CC[C@H](n2nc(C#Cc3cc(OC)cc(OC)c3)c3c(N)ncnc32)C1 | > 100 µM | 7.28 µM
CCNc1nnc(-c2ccccc2Nc2ccccc2-c2nnc(NCC)s2)s1 | > 100 µM | –
Cc1cc2c(cc1Cl)SC(c1ccccc1O)NS2(=O)=O (stereo not given) | > 100 µM | –
CCOC(=O)/C(=C\NC(C)(C)CO)c1nc2ccccc2[nH]1 | > 100 µM | –
COc1cc(CCNC(=O)OC(C)(C)C)c2c(c1OC)SSSSS2 | 4.59 µM | 2.39 µM
CCOC(=O)CN(c1ccccc1)c1nc(=[N+](C)C)ss1 | > 100 µM | –
COc1cc(C2OC[C@@H]3C(=O)OC[C@H]23)cc(O)c1OC (stereo not given in full) | > 100 µM | –
C=CCOC(=O)Nc1cccn([C@H](CC(C)C)C(=O)NCCC(C)C)c1=O | > 100 µM | > 100 µM
O=S(=O)(CCC[C@H]1[C@@H](CCOCc2ccccc2)C2CCCN1O2)c1ccccc1 (stereo not given in full) | > 100 µM | –
O=C1c2c(Cl)c(Cl)c(Cl)c(Cl)c2C(=O)C2(Cl)CC=CCC12Cl (stereo not given) | 4.72 µM | 2.21 µM
O=C(NCCCN(CCCCN(CCCNC(=O)c1cc(S(=O)(=O)O)cc(O)c1O)C(=O)c1cc(S(=O)(=O)O)cc(O)c1O)C(=O)c1cc(S(=O)(=O)O)cc(O)c1O)c1cc(S(=O)(=O)O)cc(O)c1O | > 100 µM | –
Cn1cc(-c2nnc(-c3ccc(Cl)cc3)[nH]c2=O)c2ccccc21 | > 78.6 µM | –
CN1CC2=C(NC(=S)NC2c2ccccc2Cl)/C(=C/c2ccccc2Cl)C1 (stereo not given) | > 100 µM | –
O=C1/C(=C/c2ccc(O)c(O)c2)CC/C1=C\c1ccc(O)c(O)c1 | > 81.4 µM | –
O=C(O)c1cn(C2CC2)c2cc(N3CCN(Cc4c(O)ccc5ccccc45)CC3)c(F)cc2c1=O | > 100 µM | 8.42 µM
C[C@H]1CCC/C=C/[C@@H]2C[C@H](O)C[C@H]2[C@H](O)/C=C/C(=O)O1 | – | 0.0757 µM
S=C1CC(c2ccccc2)Sc2cc(Cl)ccc2N1 (stereo not given) | > 100 µM | –

Structure (SMILES) | TGI | GI50
O=C(c1ccccc1)c1nc2ccc(C(F)(F)F)cc2nc1N1CCN(c2ccccc2)CC1 | > 100 µM | > 100 µM
Cc1ccsc1C(=S)Nc1ccc(Cl)c(/C=N/OC(C)C)c1 | > 100 µM | –
CCN(CCO)CCNc1ccc(C)c2sc3ccccc3c(=O)c12 | 13.8 µM | –
COC(=O)c1ccc2c(c1)sc1nc(-c3ccc(OC)cc3)cn12 | > 100 µM | –
NC(CCCCNCc1ccccc1)C(=O)O (stereo not given) | > 100 µM | –
Cc1cccc(Cl)c1NC(=O)c1cnc(Nc2cc(N3CCOCC3)cc(S(C)(=O)=O)c2)s1 | > 7.93 µM | 0.465 µM
[Cu+2].[NH-]C(CC(=O)O)C(=O)O.[NH-]C(CC(=O)O)C(=O)O (stereo not given) | > 100 µM | 38.3 µM
Cc1ccc(C(=O)Oc2ccc(/C=C3\CCC/C(=C\c4ccc(OC(=O)c5ccc(C)cc5)cc4)C3=O)cc2)cc1 | > 100 µM | –
C=C1C(=O)C2=CC1CCC(=O)C1(C)CCC(OC(C)=O)C(C)(C)C1CC2O (stereo not given) | 29.4 µM | –
CC1=CC(=O)N(n2c(Cc3ccc(Cl)cc3)n[nH]c2=O)C1=O | > 100 µM | –
CCN(CC)Cc1cc(Nc2ccnc3ccc4nn(C)nc4c23)ccc1O | 48.2 µM | –
Cc1cn(C2CCN(CC3COC(C)(C)O3)O2)c(=O)[nH]c1=O (stereo not given) | > 100 µM | –
NC(=O)CCSC(CC(=O)c1ccc(Cl)cc1)c1ccc(Cl)cc1 (stereo not given) | > 100 µM | –
O=c1[nH]nc(Cc2ccccc2)n1/N=C/c1ccc([N+](=O)[O-])cc1 | > 100 µM | –
O=C1c2cc(F)ccc2-c2c1c1ccc([N+](=O)[O-])cc1c(=O)n2CCCBr | > 100 µM | 41.9 µM
CN1C(=O)C2(c3ccccc31)C1CC3C(CO1)C1C2C3(CO)CN1C#N (stereo not given) | > 100 µM | –
COC(=O)/N=[N+](\[O-])C(c1ccccc1)c1ccccc1 | > 100 µM | –
CC1=C(C(=O)CC(=O)C(=O)Nc2ccc(C)c(C)c2)Sc2ccccc2N1 | > 100 µM | –
O=CN1CCC23CC(O)CCC2C1Cc1cc(Oc2nnnn2-c2ccccc2)cc(O)c13 (stereo not given) | > 100 µM | –
COc1cc(CNc2c3ccccc3nc3ccccc23)cc(OC)c1OC | 18.9 µM | –
Cc1cc(S(=O)(=O)NC(=NCCc2ccccc2)NN)c(S)cc1Cl | 93 µM | –
COc1ccc2nc3cccc([N+](=O)[O-])c3c(NC(C)CN(C)C)c2c1 (stereo not given) | 11.8 µM | 2.73 µM
O=[N+]([O-])C(/C=C(\Cl)[N+](=O)[O-])=C(N1CCCCC1)N1CCCCC1 | > 100 µM | –
COc1ccc(-c2cn(-c3cc(OC)c(OC)c(OC)c3)c(=O)[nH]2)cc1OC | > 100 µM | > 100 µM
O=C(O)Cc1ccc(N=Nc2c(O)c(C(=O)O)cc3ccccc23)cc1 | > 100 µM | –

Structure (SMILES) | TGI | GI50
C[N+]12C=CC=C1C(N1CCCC1)c1scc(-c3ccc(F)cc3)c12 (stereo not given) | > 100 µM | –
COC(=O)CNc1nc(N(C)O)nc(N(C)O)n1 | > 100 µM | 1.31 µM
COc1cc(C2CC(=O)Nc3c2c(C)nn3-c2nc3ccccc3[nH]2)cc(OC)c1O (stereo not given) | 38.9 µM | 4.48 µM
NC(N)=N/N=C/c1c(-c2cccnc2)nc2sc(Cl)cn12 | 23.4 µM | 11 µM
O=c1c(-c2ccccc2)c(SCCN2CCOCC2)n(-c2ccccc2)c(=S)n1-c1ccccc1 | > 100 µM | –
NC(=O)Cn1c(=O)oc2cc(C(=O)CN3CCOCC3)ccc21 | > 100 µM | –
COc1cc(CCC(=O)NC[C@@H](O)c2ccccc2)ccc1O | > 100 µM | > 100 µM
O=C(CN=C(CN(c1ccccc1)c1ccccc1)Oc1ccc(Cl)cc1Cl)n1ccnc1 | > 100 µM | –
COc1ccc(/C=C/C(=O)c2sc(-c3cccnc3)nc2C)cc1 | > 100 µM | –
CCCc1cn2c(/C=N/N=C(N)N)c(-c3ccc(Cl)c([N+](=O)[O-])c3)nc2s1 | 3.23 µM | –
Cn1c(=O)ccc2c(=O)c3ccccc3oc21 | > 100 µM | –
N#CCc1nnc(N)o1 | > 100 µM | –
COC(=O)Cn1c(=O)oc2nc(-c3ccccc3)cc(C(F)(F)F)c21 | > 100 µM | –
Cc1ccccc1C(C(=O)NC1CCCCC1)N(C(=O)CNc1ccc(C#N)cc1)c1cccc(F)c1 (stereo not given) | > 100 µM | > 96.6 µM
Cc1cccc(C)c1N=Nc1ccc(O)c(CN(C)C)c1 | > 100 µM | –
Cc1c2c(nn1-c1ccc(S(=O)(=O)NC(=S)NC(=O)c3ccccc3)cc1)-c1ccccc1CC2 | 81.4 µM | 24.5 µM
COc1ccc(NC(=O)c2ccc(NC3=C(Cl)C(=O)N(Cc4ccccc4)C3=O)cc2)c(OC)c1 | 98.2 µM | 27.4 µM
CN(C)CCOc1ccccc1NC1=C(Cl)C(=O)C(Nc2ccccc2OCCN(C)C)=C(Cl)C1=O | > 62.7 µM | 22.7 µM
C=C(Cl)C(C)(Cl)CCC(Cl)C(C)C (stereo not given) | > 100 µM | –
NCCSC(c1ccccc1)(c1ccccc1)c1ccccc1 | 7.9 µM | 0.545 µM
COC(=O)[C@@H](C)C[C@H](Cc1ccccc1)NC(=O)c1csc([C@@H](C[C@H](C(C)C)N(C)C(=O)[C@@H](NC(=O)[C@H]2CCCN2C)C2CC2)OC(C)=O)n1 | > 25 µM | 0.00424 µM and 0.0025 µM
CC(C)(C)[Si](C)(C)OCC1OC(n2ccc(=O)[nH]c2=O)C(O[Si](C)(C)C(C)(C)C)[C@]12O[C@@H]2CO (stereo not given in full) | 36.7 µM | –
COc1ccc2c(c1)CCCc1c-2nc2ccccc2c1N | 22.3 µM | –
CN(C)CC1CCC/C(=C\c2ccccc2)C1=O (stereo not given) | 32.6 µM | –
CCOc1cccc(-c2cc(=O)c3cc4c(cc3[nH]2)OCO4)c1 | > 100 µM | –

Structure (SMILES) | TGI | GI50
CC1(C)CCCCCCCCCC2CC2CCC(C)(C)C1=O (stereo not given) | 48.2 µM | –
C/C(=N/O)c1sc(-c2nc(C)c(/C(C)=N\O)s2)nc1C | > 100 µM | –
CC(=O)OCCCC#CC#Cc1cccc(=O)o1 | 33.6 µM | 19.2 µM
CCOC(=O)c1sc2nc1CSc1sc(=S)sc1SCc1nc(sc1C(=O)OCC)-c1nc(c(C(=O)OCC)s1)CSc1sc(=S)sc1SCc1nc-2sc1C(=O)OCC | > 10 µM | –
CCCC[C@H]1C(=O)O[C@H](C)[C@H](NC(=O)c2cccc(NC=O)c2OC)C(=O)O[C@@H](C)[C@@H]1OC(=O)CC(C)C (tested in a mixture with another compound) | 49.2 µM | –
COc1ccc(N=Nc2c(N)nn(C)c2N)cc1 | > 100 µM | –
O=C(O)c1ccc([C@@H]2C(=O)N(O)[C@@H]3C=CC[C@@H]32)cc1 | > 100 µM | –
CCC1(c2ccc(N)cc2)CCC(=O)NC1=O (stereo not given) | > 3870 µM | –
C/C=C(\C)C(=O)O[C@H]1C=CC(=O)O[C@H]1COC(=O)[C@H](C)O | 26.8 µM | 12.9 µM
COC12OCCN(C)C1=CC(=O)C1(C)N=NCC12 (stereo not given) | > 100 µM | –
CC(=Nc1ccc(Cl)c(Cl)c1)c1ccncc1 | > 100 µM | –
O=[N+]([O-])C=C1c2ccccc2-c2ccccc21 | 31.5 µM | –
C(#CC1(Nc2ccccc2)CCN(Cc2ccccc2)CC1)C1(Nc2ccccc2)CCN(Cc2ccccc2)CC1 | > 31.6 µM | –
COP(=O)(OC)[C@H](O)[C@H]1C[C@@H]1c1ccccc1 | > 100 µM | –
O=C1CS(=O)(=O)C(c2cccc(Oc3ccccc3)c2)N1C1CC1 (stereo not given) | > 100 µM | –
CC(C)Cn1cnc2c(Cl)nc3ccccc3c21 | > 100 µM | –
Cc1sc2c(c1C)C(c1ccc(Cl)cc1)=N[C@@H](CC(=O)NCCCN1CCN(C)CC1)c1nnc(C)n1-2 | > 100 µM | 3.35 µM
C=C1CC2C3C=C(C)C4=CC(=O)CC[C@]4(C)C3CC[C@]2(C)[C@@]1(OC(C)=O)C(C)=O (stereo not given in full) | > 100 µM | > 100 µM
CC1(C)CCC(C)(C)c2cc(NC(=O)c3ccc(C(=O)O)cc3)ccc21 | > 100 µM | –
COc1ccc(N=Cc2ccc(N(CCC#N)S(=O)(=O)c3ccccc3)cc2C)cc1 | > 100 µM | –
CN(C)CCNC(=O)c1ccc2oc3cc4ccccc4c(=O)n3c2c1 | 9.23 µM | 2.02 µM
COC(=O)[C@]12CSC[C@H]1C[C@H](c1cccc3ccccc13)N2 | > 100 µM | –

Source: PubChem BioAssay (NCI)
